# The other results are listed elsewhere or left out. Most values come without repeats; read them as rough.
# Legend:
# Assay in all cases: cell count relative to DMSO control; melanoma cells; higher = more viable cells
# Settings in all cases: library dose: standard library concentration; 72 h
# A101D = tested on: A101D
# A2058 = tested on: A2058
# A375 = tested on: A375
# 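Also: cells treated in 1,536-well plates, then fixed and DAPI-stained, with nuclei counted from automated high-throughput microscope images.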
structure (smiles),measurement,setting,value
"Cc1ccc(Nc2nccc(N(C)c3ccc4c(C)n(C)nc4c3)n2)cc1S(N)(=O)=O [Pazopanib] + Nc1cccc2c1CN(C1CCC(=O)NC1=O)C2=O [lenalidomide] (first compound 2 µM, partner dose 5 µM)",cell count,A101D,92.7%
same,cell count,A2058,100%
same,cell count,A375,110%
"O=C(/C=C/c1cccnc1)NCCCCC1CCN(C(=O)c2ccccc2)CC1 + CN(c1ncccc1CNc1nc(Nc2ccc3c(c2)CC(=O)N3)ncc1C(F)(F)F)S(C)(=O)=O [PF562271] (first compound 0.05 µM, partner dose 0.4 µM)",cell count,A101D,104%
same,cell count,A2058,68.3%
same,cell count,A375,78%
"CC1(C)CCC(c2ccc(Cl)cc2)=C(CN2CCN(c3ccc(C(=O)NS(=O)(=O)c4ccc(N[C@H](CCN5CCOCC5)CSc5ccccc5)c(S(=O)(=O)C(F)(F)F)c4)cc3)CC2)C1 + Cc1cc(Nc2cc(N3CCN(C)CC3)nc(/C=C/c3ccccc3)n2)n[nH]1 [ENMD2076] (first compound 2 µM, partner dose 0.2 µM)",cell count,A101D,40.3%
same,cell count,A2058,84.7%
same,cell count,A375,82.4%
"O=C(/C=C/c1cccnc1)NCCCCC1CCN(C(=O)c2ccccc2)CC1 + CO[C@H]1C[C@@H]2CC[C@@H](C)[C@@](O)(O2)C(=O)C(=O)N2CCCC[C@H]2C(=O)O[C@H]([C@H](C)C[C@@H]2CC[C@@H](OCCO)[C@H](OC)C2)CC(=O)[C@H](C)/C=C(\C)[C@@H](O)[C@@H](OC)C(=O)[C@H](C)C[C@H](C)/C=C/C=C/C=C/1C [everolimus] (first compound 0.05 µM, partner dose 0.1 µM)",cell count,A101D,82.8%
same,cell count,A2058,77.9%
same,cell count,A375,92.7%
"CC1(C)CCC(c2ccc(Cl)cc2)=C(CN2CCN(c3ccc(C(=O)NS(=O)(=O)c4ccc(N[C@H](CCN5CCOCC5)CSc5ccccc5)c(S(=O)(=O)C(F)(F)F)c4)cc3)CC2)C1 + O=C(Nc1cccc(Cl)c1)Nc1ncc(CCNc2ncnc3ccsc23)s1 [SNS314] (first compound 2 µM, partner dose 0.004 µM)",cell count,A101D,37.9%
same,cell count,A2058,55.8%
same,cell count,A375,69.2%
"O=C(/C=C/c1cccnc1)NCCCCC1CCN(C(=O)c2ccccc2)CC1 + COc1ccc(Cl)c(Nc2nc3ccccc3nc2NS(=O)(=O)c2cccc(NC(=O)C(C)(C)N)c2)c1 [XL147] (first compound 0.05 µM, partner dose 4 µM)",cell count,A101D,96.8%
same,cell count,A2058,101%
same,cell count,A375,113%
"O=C(/C=C/c1cccnc1)NCCCCC1CCN(C(=O)c2ccccc2)CC1 + C[C@@H](N)c1ccc(C(=O)Nc2ccnc3[nH]ccc23)cc1 [RKI983] (first compound 0.05 µM, partner dose 2 µM)",cell count,A101D,68.5%
same,cell count,A2058,76.3%
same,cell count,A375,77.2%
"O=C(/C=C/c1cccnc1)NCCCCC1CCN(C(=O)c2ccccc2)CC1 + Cn1cncc1[C@@](N)(c1ccc(Cl)cc1)c1ccc2c(c1)c(-c1cccc(Cl)c1)cc(=O)n2C [tipifarnib] (first compound 0.05 µM, partner dose 0.05 µM)",cell count,A101D,66.8%
same,cell count,A2058,83.5%
same,cell count,A375,76.5%
"O=C(/C=C/c1cccnc1)NCCCCC1CCN(C(=O)c2ccccc2)CC1 + Nc1ccn([C@@H]2O[C@H](CO)[C@@H](O)C2(F)F)c(=O)n1 [gemcitabine] (first compound 0.05 µM, partner dose 0.002 µM)",cell count,A101D,76.9%
same,cell count,A2058,60.8%
same,cell count,A375,96.4%
"CC1(C)CCC(c2ccc(Cl)cc2)=C(CN2CCN(c3ccc(C(=O)NS(=O)(=O)c4ccc(N[C@H](CCN5CCOCC5)CSc5ccccc5)c(S(=O)(=O)C(F)(F)F)c4)cc3)CC2)C1 + CC(=O)O[C@@]12CO[C@@H]1C[C@H](O)[C@@]1(C)C(=O)[C@H](O)C3=C(C)[C@@H](OC(=O)[C@H](O)[C@@H](NC(=O)OC(C)(C)C)c4ccccc4)C[C@@](O)([C@@H](OC(=O)c4ccccc4)[C@H]21)C3(C)C [Docetaxel] (first compound 2 µM, partner dose 0.0005 µM)",cell count,A101D,17.4%
same,cell count,A2058,6.41%
same,cell count,A375,53.7%
"CC1(C)CCC(c2ccc(Cl)cc2)=C(CN2CCN(c3ccc(C(=O)NS(=O)(=O)c4ccc(N[C@H](CCN5CCOCC5)CSc5ccccc5)c(S(=O)(=O)C(F)(F)F)c4)cc3)CC2)C1 + CC(C)C[C@H](NC(=O)[C@H](Cc1ccccc1)NC(=O)c1cnccn1)B(O)O [Bortezomib] (first compound 2 µM, partner dose 0.005 µM)",cell count,A101D,7.95%
same,cell count,A2058,11.4%
same,cell count,A375,47.7%
"O=C(/C=C/c1cccnc1)NCCCCC1CCN(C(=O)c2ccccc2)CC1 + Nc1cccc2c1CN(C1CCC(=O)NC1=O)C2=O [lenalidomide] (first compound 0.05 µM, partner dose 5 µM)",cell count,A101D,96.2%
same,cell count,A2058,93.5%
same,cell count,A375,130%
"CC1(C)CCC(c2ccc(Cl)cc2)=C(CN2CCN(c3ccc(C(=O)NS(=O)(=O)c4ccc(N[C@H](CCN5CCOCC5)CSc5ccccc5)c(S(=O)(=O)C(F)(F)F)c4)cc3)CC2)C1 + C=C(c1ccc(C(=O)O)cc1)c1cc2c(cc1C)C(C)(C)CCC2(C)C [Bexarotene] (first compound 2 µM, partner dose 10 µM)",cell count,A101D,45.1%
same,cell count,A2058,88.9%
same,cell count,A375,61%
"O=C(/C=C/c1cccnc1)NCCCCC1CCN(C(=O)c2ccccc2)CC1 + C=CCNC1=C2C[C@@H](C)C[C@H](OC)[C@H](O)[C@@H](C)/C=C(\C)[C@H](OC(N)=O)[C@@H](OC)/C=C\C=C(/C)C(=O)NC(=CC1=O)C2=O [Tanespimycin] (first compound 0.05 µM, partner dose 0.01 µM)",cell count,A101D,77.9%
same,cell count,A2058,71.7%
same,cell count,A375,80.3%
"Cc1ccc(Nc2nccc(N(C)c3ccc4c(C)n(C)nc4c3)n2)cc1S(N)(=O)=O [Pazopanib] + C=CCNC1=C2C[C@@H](C)C[C@H](OC)[C@H](O)[C@@H](C)/C=C(\C)[C@H](OC(N)=O)[C@@H](OC)/C=C\C=C(/C)C(=O)NC(=CC1=O)C2=O [Tanespimycin] (first compound 2 µM, partner dose 0.01 µM)",cell count,A101D,72%
same,cell count,A2058,94.7%
same,cell count,A375,81.6%
"O=C(/C=C/c1cccnc1)NCCCCC1CCN(C(=O)c2ccccc2)CC1 + CS(=O)(=O)c1ccc(C(=O)Nc2ccc(Cl)c(-c3ccccn3)c2)c(Cl)c1 [vismodegib] (first compound 0.05 µM, partner dose 5 µM)",cell count,A101D,88.9%
same,cell count,A2058,95.8%
same,cell count,A375,114%
"O=C(/C=C/c1cccnc1)NCCCCC1CCN(C(=O)c2ccccc2)CC1 + CCCCCCCCc1ccc(CCC(N)(CO)CO)cc1 [fingolimod] (first compound 0.05 µM, partner dose 10 µM)",cell count,A101D,3.46%
same,cell count,A2058,10.7%
same,cell count,A375,32.5%
"Cc1ccc(Nc2nccc(N(C)c3ccc4c(C)n(C)nc4c3)n2)cc1S(N)(=O)=O [Pazopanib] + C#Cc1cccc(Nc2ncnc3cc(OCCOC)c(OCCOC)cc23)c1 [erlotinib] (first compound 2 µM, partner dose 4 µM)",cell count,A101D,64.6%
same,cell count,A2058,66.9%
same,cell count,A375,79%
"O=C(/C=C/c1cccnc1)NCCCCC1CCN(C(=O)c2ccccc2)CC1 + CCCS(=O)(=O)Nc1ccc(F)c(C(=O)c2c[nH]c3ncc(Cl)cc23)c1F [PLX4720] (first compound 0.05 µM, partner dose 0.4 µM)",cell count,A101D,66.8%
same,cell count,A2058,98.5%
same,cell count,A375,93.4%
"CC1(C)CCC(c2ccc(Cl)cc2)=C(CN2CCN(c3ccc(C(=O)NS(=O)(=O)c4ccc(N[C@H](CCN5CCOCC5)CSc5ccccc5)c(S(=O)(=O)C(F)(F)F)c4)cc3)CC2)C1 + C[C@@H](Oc1cc(-c2cnn(C3CCNCC3)c2)cnc1N)c1c(Cl)ccc(F)c1Cl [Crizotinib] (first compound 2 µM, partner dose 1 µM)",cell count,A101D,44%
same,cell count,A2058,72.8%
same,cell count,A375,57.6%
"O=C(/C=C/c1cccnc1)NCCCCC1CCN(C(=O)c2ccccc2)CC1 + CC(C)C[C@H](NC(=O)[C@H](Cc1ccccc1)NC(=O)c1cnccn1)B(O)O [Bortezomib] (first compound 0.05 µM, partner dose 0.005 µM)",cell count,A101D,15.7%
same,cell count,A2058,15.8%
same,cell count,A375,71.6%
"CC1(C)CCC(c2ccc(Cl)cc2)=C(CN2CCN(c3ccc(C(=O)NS(=O)(=O)c4ccc(N[C@H](CCN5CCOCC5)CSc5ccccc5)c(S(=O)(=O)C(F)(F)F)c4)cc3)CC2)C1 + OCc1c[nH]c2ccccc12 [Indole-3-carbinol] (first compound 2 µM, partner dose 4 µM)",cell count,A101D,45.1%
same,cell count,A2058,93.6%
same,cell count,A375,85.9%
"Cc1ccc(Nc2nccc(N(C)c3ccc4c(C)n(C)nc4c3)n2)cc1S(N)(=O)=O [Pazopanib] + COc1cc(Nc2ncc(F)c(Nc3ccc4c(n3)NC(=O)C(C)(C)O4)n2)cc(OC)c1OC [Tamatinib] (first compound 2 µM, partner dose 2 µM)",cell count,A101D,62.2%
same,cell count,A2058,72.3%
same,cell count,A375,86.5%
"Cc1ccc(Nc2nccc(N(C)c3ccc4c(C)n(C)nc4c3)n2)cc1S(N)(=O)=O [Pazopanib] + O=C(O)c1ccc(-c2c[nH]c3ncc(-c4ccccc4)cc23)cc1C1CCCC1 [GSK650394] (first compound 2 µM, partner dose 0.8 µM)",cell count,A101D,74%
same,cell count,A2058,86.6%
same,cell count,A375,100%
"O=C(/C=C/c1cccnc1)NCCCCC1CCN(C(=O)c2ccccc2)CC1 + CCN(CC)CCNC(=O)c1c(C)[nH]c(/C=C2\C(=O)Nc3ccc(F)cc32)c1C [sunitinib] (first compound 0.05 µM, partner dose 2 µM)",cell count,A101D,58.1%
same,cell count,A2058,69.6%
same,cell count,A375,90.6%
"O=C(/C=C/c1cccnc1)NCCCCC1CCN(C(=O)c2ccccc2)CC1 + CS(=O)(=O)CCNCc1ccc(-c2ccc3ncnc(Nc4ccc(OCc5cccc(F)c5)c(Cl)c4)c3c2)o1 [lapatinib] (first compound 0.05 µM, partner dose 4 µM)",cell count,A101D,96%
same,cell count,A2058,68.8%
same,cell count,A375,132%
